The other results are listed elsewhere or left out. These are noisy estimates, calculated here from bound and input reads.

For this experiment, the target named is T1, Pho4 (S. cerevisiae) (UniProt P07270).
T1 sequence: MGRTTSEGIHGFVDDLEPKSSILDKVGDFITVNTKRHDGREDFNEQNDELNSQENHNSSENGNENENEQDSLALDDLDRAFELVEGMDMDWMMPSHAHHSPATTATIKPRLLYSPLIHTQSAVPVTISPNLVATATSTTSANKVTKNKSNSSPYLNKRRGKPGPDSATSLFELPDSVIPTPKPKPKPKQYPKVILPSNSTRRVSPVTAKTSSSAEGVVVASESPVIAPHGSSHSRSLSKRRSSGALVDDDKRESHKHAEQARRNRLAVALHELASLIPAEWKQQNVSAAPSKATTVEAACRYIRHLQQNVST
In words: relative binding free energy (BET-seq); higher = weaker binding. Particulars: reference: library average.
Regarding TCGTTCACGTGGGGGG, the “relative binding free energy” value is 0.21 kcal/mol.

With GTATACACGTGGTTTG, the “relative binding free energy” value came out at 0.01 kcal/mol.

For AGGATCACGTGGGAAT, the “relative binding free energy” value was found to be 0.04 kcal/mol.

In the case of ATACGCACGTGTGGTT, the “relative binding free energy” value was -0.22 kcal/mol.

On to TTTTACACGTGGATAT, for which the “relative binding free energy” value was 0.08 kcal/mol.

For the sequence TATTGCACGTGTTTCT, the “relative binding free energy” value was 0.05 kcal/mol.

With TGCAGCACGTGGATGA, the “relative binding free energy” value was found to be 0.03 kcal/mol.

With GAGTCCACGTGTGGGG, the “relative binding free energy” value came to 0.18 kcal/mol.

Consider GAGGTCACGTGGTCTA, for which the “relative binding free energy” value is 0.05 kcal/mol.

With GTATGCACGTGTTTTT, the “relative binding free energy” value came out at 0.09 kcal/mol.

In the case of CGGCTCACGTGGTTAT, the “relative binding free energy” value amounted to 0.08 kcal/mol.

Take TGGTGCACGTGGCTTA: the “relative binding free energy” value is -0.17 kcal/mol.

As to ATTCTCACGTGGTTTG, the “relative binding free energy” value came to 0.16 kcal/mol.

As for AATTACACGTGGCGTT, the “relative binding free energy” value was found to be 0.03 kcal/mol.

Turning to GAGATCACGTGGATTG, the “relative binding free energy” value turned out to be 0.23 kcal/mol.

Turning to GGTTGCACGTGGCATT, the “relative binding free energy” value is -0.07 kcal/mol.

ATTTTCACGTGTAGGA: the “relative binding free energy” value is 0.23 kcal/mol.

For the sequence GCACACACGTGTTGGG, the “relative binding free energy” value was determined as 0.21 kcal/mol.

On to AGATACACGTGAGGCG, for which the “relative binding free energy” value is 0.36 kcal/mol.

Regarding GTTGCCACGTGGGGTC, the “relative binding free energy” value was -0.16 kcal/mol.

TGGATCACGTGCGGGC: the “relative binding free energy” value turned out to be 0.05 kcal/mol.

Turning to GGTTTCACGTGTAATG, the “relative binding free energy” value stood at 0.32 kcal/mol.

Consider TTCGGCACGTGGAAAG, for which the “relative binding free energy” value is -0.08 kcal/mol.

Take GAGTGCACGTGGAAGT: the “relative binding free energy” value turned out to be 0.12 kcal/mol.

Take GGTAGCACGTGGTGGA: the “relative binding free energy” value was -0.07 kcal/mol.

Turning to AGAGGCACGTGGCTTA, the “relative binding free energy” value was -0.13 kcal/mol.

Take GTATTCACGTGGCGCT: the “relative binding free energy” value is 0.18 kcal/mol.

For TTAATCACGTGTTGTT, the “relative binding free energy” value amounted to 0.13 kcal/mol.

Take GGGTGCACGTGCTGGC: the “relative binding free energy” value was -0.04 kcal/mol.

Turning to TGGTGCACGTGGGAGC, the “relative binding free energy” value was -0.1 kcal/mol.

In the case of TTTATCACGTGTACTG, the “relative binding free energy” value was -0.01 kcal/mol.

For the sequence TGCGGCACGTGCGAGT, the “relative binding free energy” value is -0.03 kcal/mol.

With GTTGCCACGTGTTTAT, the “relative binding free energy” value is -0.12 kcal/mol.

For the sequence AGCTTCACGTGGCGTG, the “relative binding free energy” value came out at 0.16 kcal/mol.

As for GGTGCCACGTGTAGGA, the “relative binding free energy” value was -0.15 kcal/mol.

Take TGGACCACGTGGGTCG: the “relative binding free energy” value is -0.17 kcal/mol.

Turning to AAGATCACGTGATGGT, the “relative binding free energy” value is 0.22 kcal/mol.

Consider ATAGTCACGTGGGGTA, for which the “relative binding free energy” value is -0.13 kcal/mol.

With TTATGCACGTGCGGGG, the “relative binding free energy” value is -0.12 kcal/mol.

Turning to TGCTGCACGTGGGGGC, the “relative binding free energy” value was -0.17 kcal/mol.

Turning to GGAAACACGTGGTTGT, the “relative binding free energy” value was 0.05 kcal/mol.

As for GCTGGCACGTGCAGGG, the “relative binding free energy” value is -0.07 kcal/mol.

CTGTGCACGTGTTAGG: the “relative binding free energy” value turned out to be 0.06 kcal/mol.

For the sequence CCGTTCACGTGGTGGG, the “relative binding free energy” value was 0.15 kcal/mol.

With TGATACACGTGTGCTT, the “relative binding free energy” value came to 0.1 kcal/mol.

TTAAGCACGTGCAGTT: the “relative binding free energy” value is -0.17 kcal/mol.

Take AGCTGCACGTGCAGGG: the “relative binding free energy” value was found to be 0 kcal/mol.

Turning to TGTGACACGTGGAATG, the “relative binding free energy” value was found to be 0.05 kcal/mol.

As to AAGATCACGTGTTTGT, the “relative binding free energy” value came out at 0 kcal/mol.

On to GTCATCACGTGATGTT, for which the “relative binding free energy” value came to 0.23 kcal/mol.

GTTGTCACGTGGTGAA: the “relative binding free energy” value worked out at 0.06 kcal/mol.

As for AGGCTCACGTGTGTGA, the “relative binding free energy” value is 0.27 kcal/mol.

For ATTAGCACGTGGTCGT, the “relative binding free energy” value was -0.21 kcal/mol.

On to ACCATCACGTGTGGGG, for which the “relative binding free energy” value is 0.23 kcal/mol.

For GATGCCACGTGGTGTA, the “relative binding free energy” value was -0.11 kcal/mol.

For the sequence TTAGGCACGTGTTCTA, the “relative binding free energy” value is -0.14 kcal/mol.

As to GTATGCACGTGTAGGT, the “relative binding free energy” value was found to be 0.02 kcal/mol.

Consider GCGTTCACGTGTTTTG, for which the “relative binding free energy” value stood at 0.38 kcal/mol.

With TTAGCCACGTGGGTTG, the “relative binding free energy” value was -0.19 kcal/mol.

As for GTTTGCACGTGAGTCA, the “relative binding free energy” value came out at 0.14 kcal/mol.

As for TGTGGCACGTGCAGAT, the “relative binding free energy” value was -0.07 kcal/mol.

With AAATTCACGTGTGGAA, the “relative binding free energy” value came to 0.39 kcal/mol.

Turning to ATTGTCACGTGTTGTG, the “relative binding free energy” value was 0.09 kcal/mol.

With TATTCCACGTGGTGTT, the “relative binding free energy” value amounted to 0.07 kcal/mol.

With GCTTTCACGTGTAGGG, the “relative binding free energy” value was 0.21 kcal/mol.

On to TAACGCACGTGCGGGT, for which the “relative binding free energy” value is -0.08 kcal/mol.

Take TGGGTCACGTGTCTGA: the “relative binding free energy” value worked out at 0.04 kcal/mol.

Turning to TGACGCACGTGTAGAG, the “relative binding free energy” value was -0.06 kcal/mol.

Take ATCGGCACGTGTAGGA: the “relative binding free energy” value was found to be 0.06 kcal/mol.

As to TTTGTCACGTGATTGA, the “relative binding free energy” value is 0.27 kcal/mol.

For the sequence ATAGTCACGTGGTAAT, the “relative binding free energy” value is 0.05 kcal/mol.

For the sequence GATTACACGTGAGGCT, the “relative binding free energy” value was determined as 0.34 kcal/mol.

For CTTGGCACGTGGGGAG, the “relative binding free energy” value is -0.22 kcal/mol.

As for TTATGCACGTGTGCAG, the “relative binding free energy” value stood at 0.02 kcal/mol.

For AGGGACACGTGTTTTA, the “relative binding free energy” value came to 0.05 kcal/mol.

As to GGTGTCACGTGTTCGT, the “relative binding free energy” value stood at 0.04 kcal/mol.

For the sequence AGGTTCACGTGTGTGG, the “relative binding free energy” value is 0.18 kcal/mol.

In the case of AGGATCACGTGAGGGA, the “relative binding free energy” value was 0.31 kcal/mol.

Take GGGCACACGTGATGTT: the “relative binding free energy” value is -0.02 kcal/mol.

For TGGGTCACGTGGTGAG, the “relative binding free energy” value was determined as 0.09 kcal/mol.

For the sequence TTTACCACGTGGCGTT, the “relative binding free energy” value was -0.16 kcal/mol.

For the sequence GGGGGCACGTGGCAGC, the “relative binding free energy” value is -0.13 kcal/mol.

On to GGGTGCACGTGACGTT, for which the “relative binding free energy” value is 0.17 kcal/mol.

Turning to TTATACACGTGGGGGT, the “relative binding free energy” value was -0.12 kcal/mol.

As to ATTAACACGTGGGGAG, the “relative binding free energy” value is -0.15 kcal/mol.

On to TTGGGCACGTGCGACT, for which the “relative binding free energy” value was -0.01 kcal/mol.

Take GTGCTCACGTGTAATG: the “relative binding free energy” value is 0.18 kcal/mol.

TGGTGCACGTGGTATA: the “relative binding free energy” value was -0.1 kcal/mol.

As to AAGGACACGTGTTTCG, the “relative binding free energy” value worked out at 0.14 kcal/mol.

As to GGAGACACGTGAGTGG, the “relative binding free energy” value stood at 0.2 kcal/mol.

TTGGTCACGTGACTGG: the “relative binding free energy” value was 0.18 kcal/mol.

Consider GCAGTCACGTGGTTGG, for which the “relative binding free energy” value was -0.08 kcal/mol.

Consider GGGGCCACGTGATCGG, for which the “relative binding free energy” value was found to be 0.07 kcal/mol.

As to TTTAACACGTGATGGA, the “relative binding free energy” value was found to be 0.13 kcal/mol.

As to GGGTGCACGTGATGTA, the “relative binding free energy” value amounted to 0.05 kcal/mol.

On to CGGCGCACGTGAGGGG, for which the “relative binding free energy” value was 0.17 kcal/mol.

As to GGTGTCACGTGTCGCT, the “relative binding free energy” value stood at 0.02 kcal/mol.

Turning to TCTAGCACGTGTAGTG, the “relative binding free energy” value was -0.04 kcal/mol.

For the sequence TTGGTCACGTGATCAT, the “relative binding free energy” value stood at 0.17 kcal/mol.

Consider AAATGCACGTGAATGT, for which the “relative binding free energy” value came out at 0.22 kcal/mol.

GAAAGCACGTGGTGTA: the “relative binding free energy” value is -0.19 kcal/mol.

Take GGAGACACGTGGGGCG: the “relative binding free energy” value was -0.12 kcal/mol.

As to AAGAGCACGTGGGGTC, the “relative binding free energy” value was -0.08 kcal/mol.

As for TTGGGCACGTGGCTAG, the “relative binding free energy” value is -0.23 kcal/mol.

With TTGTGCACGTGTCGTT, the “relative binding free energy” value is -0.02 kcal/mol.

For AGGGGCACGTGTGGTC, the “relative binding free energy” value was -0.09 kcal/mol.

AAGTGCACGTGTGCTG: the “relative binding free energy” value is -0.17 kcal/mol.

As for GGCGTCACGTGAAGGG, the “relative binding free energy” value worked out at 0.36 kcal/mol.

Consider ATAGGCACGTGGCGTT, for which the “relative binding free energy” value was -0.24 kcal/mol.

For TGTATCACGTGCTCTG, the “relative binding free energy” value is 0.15 kcal/mol.

Take TGTATCACGTGCAAAT: the “relative binding free energy” value came out at 0.26 kcal/mol.

Consider AGGAACACGTGCATGG, for which the “relative binding free energy” value was 0.12 kcal/mol.

ATGTTCACGTGGGTTC: the “relative binding free energy” value stood at 0.23 kcal/mol.

For the sequence AATGCCACGTGCGTGG, the “relative binding free energy” value is -0.07 kcal/mol.

TTCTACACGTGTAGGG: the “relative binding free energy” value came to 0.01 kcal/mol.

The values are drawn from the BET-seq Pho4 binding data (Le et al. 2018).
